Measured values from PubChem BioAssay AID493208 (National Center for Advancing Translational Sciences (NCATS), 2011).
In all, about 44,000 compounds went through this assay and about 340 (0.77%) were called active. Inconclusive results (about 5%) are left out. Calls come from the whole dose curve; as a rule, active = well fitted inhibition curve with a large enough effect; inconclusive = small, poorly fitted or top-dose-only effect; inactive = flat fitted curve, though single readings scatter. The list shows a part of the results.

Experiment: Acumen qHTS Assay for Inhibitors of the mTORC1 Signaling Pathway in MEF (Tsc2-/-, p53-/-) Cells: Sytravon;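 note: plate controls were DMSO for no effect and rapamycin for full effect; nearly all actives have a fitted effect of over 50% in size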
Conditions: phospho-rpS6 immunofluorescence/PI, 24 h; series mostly up to 38.3 µM; activity change, negative = inhibition: at the top concentration
In short: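 Cell-based qHTS: Tsc2-/- p53-/- MEF, 24 h cpd, 37 °C; fix/perm, anti-phospho-S6 Alexa-488 + PI; Acumen 488 nm scan; pS6/PI ratio, % positive cells; rapamycin 7.5 nM = inhibition ref; PI count = viability.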

Activity change, negative = inhibition, inactive:
COc1ccccc1CNC(=O)C1CCC(CNS(=O)(=O)c2ccc3c(c2)CCCC(=O)N3)CC1 (stereo not given) -5.76%, Cc1ccc(N2C(=O)CSC23C(=O)N(CC(=O)NCc2ccccc2)c2ccccc23)cc1C (stereo not given) 1.14%, CNC(=O)c1c(NC(=O)c2ccc(S(=O)(=O)N3CCC(C)CC3)cc2)sc2c1CCC2 -4.15%, Cc1cccc(C)c1OCC(=O)NCC1(N(C)C)CCCCC1 -2.59%, COc1ccc(CNC(=O)c2ccc(N3CCCC3)c(NC(=O)NCc3ccc(F)cc3)c2)cc1 20%, COc1ccc(CNS(=O)(=O)c2cnc(N)nc2)c(OC)c1 -11.5%, CCN(CC)CCNC(=O)c1ccc(Cn2c(SCc3ccccc3)nc3cccnc32)cc1 -2.97%, Cc1ccc2c(Sc3ccc(Cl)cc3)c(C(=O)N3CCC(C)CC3)[nH]c2c1 1.83%, CS(=O)(=O)c1ccc(-c2nnc(NC(=O)c3ccc4c(c3)OCCO4)o2)cc1 5.16%, CCC1CN(C(=O)N2CCC(C(=O)NCCN(CC)CC)CC2)c2cc(C)ccc2O1 (stereo not given) -1.02%, CCOc1cc(CNC(=O)c2sc3ncnc(N(C)C4CCCCC4)c3c2C)ccc1OC 0.181%, CC(C)Oc1ccc(CNC(=O)CCCN2C(=O)c3cccnc3Oc3ccc(Cl)cc32)cc1 -6.33%, CCC(=O)N1CCc2cc(Br)cc(S(=O)(=O)Nc3ccc(C)cc3C)c21 -5.58%, CCN(C(=O)c1cc2c(s1)-c1c(C)cccc1OC2)c1ccccc1F -0.186%, CCc1cc(=O)oc2c3c(c(Cl)cc12)OCN(Cc1cccc(OC)c1)C3 -9%, CCOC(=O)c1scc(-c2ccccc2)c1S(=O)(=O)Nc1cc(OC)cc(OC)c1 -10.7%, O=C(Cn1cc(SCc2c(F)cccc2Cl)c2ccccc21)N1CCCCCC1 -16.4%, COc1ccc(-n2nc(C(=O)N(C)c3cc(C)ccc3C)c3c4ccccc4n(C)c3c2=O)cc1Cl 0.716%, Cc1ccc(C)c(NC(=O)c2cnn(-c3cccc(F)c3)c2C2CCN(C(=O)OC(C)(C)C)CC2)c1 -10.3%, CCOc1ccc(NS(=O)(=O)c2ccc(-c3cc(C)no3)s2)cc1 1.3%, Cc1c(Cl)cccc1NC(=O)c1cnc2sc(N3CCOCC3)nn2c1=O 1.92%, CCN(c1ccccc1)S(=O)(=O)c1ccc(NC(=O)c2cc(=O)c3cc(C)cc(C)c3o2)cc1 3.88%, CCC(=O)N1c2ccccc2CC1C(=O)NCCc1ccccc1C (stereo not given) 7.35%, Cc1ccc(S(=O)(=O)Nc2ccc3c(c2)CCCN3C(=O)c2cccs2)cc1 -0.458%, Cc1cc2ccccc2n1CCNC(=O)c1cccc(Br)c1 -13.7%, O=C(CSc1cn(CC(=O)N2CCOCC2)c2ccccc12)Nc1ccccc1F -1.07%, COc1ccc2oc(=O)cc(CN3CCN(Cc4ccccc4)CC3)c2c1 -6.13%, COc1ccc(OC)c(CCNC(=O)CCCn2c(=O)c3cccn3c3ccccc32)c1 3.41%, O=C(c1ccc2c(c1)N(Cc1ccc(Cl)cc1)C(=O)c1ccccc1S2=O)N1CCOCC1 (stereo not given) 0.226%, Cc1cc(C)c2c(CC(=O)N3CCN(c4cccc(Cl)c4)CC3)coc2c1 5.52%, CCc1cccc(NC(=O)Cn2c(=O)ccc3cc(S(=O)(=O)N4CCC(C)CC4)ccc32)c1 -10.9%, CCOc1ccccc1N1CC(c2nc3ccccc3n2CCOc2ccccc2)CC1=O (stereo not given) -0.484%, CCc1ccc(CNc2ncnc3c2nc2n3CCCC2)cc1 4.71%, COc1cccc(N2CCN(C(=O)c3ccc(Cn4c(=O)[nH]c5cc(OC)c(OC)cc5c4=O)cc3)CC2)c1 -1.74%, CC1CCc2nc3ncn(Cc4ccccc4C#N)c(=O)c3cc2C1 (stereo not given) -0.874%, COc1ccc(C(CNC(=O)c2oc3ccc(Cl)cc3c2C)N2CCCCC2)cc1 (stereo not given) -3.38%, CCCC(=O)N(c1ccc2oc3c(c2c1)CCCC3)S(=O)(=O)c1cc(C)ccc1C -28.7%, O=C1CC(c2nc3ccccc3[nH]2)CN1c1cccc(Cl)c1 (stereo not given) 1.22%, COC(=O)c1ccc(CSc2nc3c([nH]c4ccccc43)c(=O)n2-c2ccc(Cl)cc2)o1 -4.71%, CCCCNc1nc2c(c(=O)n(Cc3ccc(Cl)cc3)c(=O)n2C)n1C 1.7%, Nc1nnc2c(n1)[nH]c1ccccc12 2.2%, COc1cccc(CSc2nc3cc(C(=O)NC4CCCC4)ccc3c(=O)n2Cc2ccccc2)c1 -7.85%, O=C(CSc1nc2ccccc2n1Cc1ccccc1)N1CCN(c2ccc(F)cc2)CC1 0.435%, COc1ccc(-n2cc(C(=O)NCc3ccccc3)c3ccccc3c2=O)cc1 5.45%, Cc1cc(Cl)ccc1NC(=O)c1cc(S(=O)(=O)N2CCOCC2)cn1C -0.0914%, COc1ccc(CNC(=O)c2ccc(CS(=O)(=O)c3ccccc3OC)o2)cc1 -2.71%, O=C(NCCc1nc2ccccc2n1Cc1ccc(F)cc1)c1ccco1 -2.81%, Cc1ccc(-c2nc(CCNC(=O)C(=O)Nc3ccc(C)cc3C)cs2)cc1 -7.12%, Cc1ccc(C)c(-c2[nH]c3c(c2-c2c(-n4cccc4)n(C)c(=O)[nH]c2=O)c(=O)[nH]c(=O)n3C)c1 2.63%, CCN(CC)S(=O)(=O)c1ccc2c(c1)N(CC(=O)N1CCN(c3ccc(F)cc3)CC1)C(=O)CO2 -8.79%, CCOc1ccc(CCNC(=O)Cn2nc(-c3ccc(C)cc3)ccc2=O)cc1OCC 9.71%, CCc1ccccc1NC(=O)C1=C(C)C(=O)OC12CCCCCC2 0.0094%, COc1cc(CN2CCN(S(=O)(=O)c3ccccc3)CC2)cc(OC)c1O -2.16%, O=C(CNS(=O)(=O)c1cccs1)N1CCN(c2cccc(C(F)(F)F)c2)CC1 -1.27%, Cc1cccc(NC(=O)C(=O)NCC(c2ccc3c(c2)OCO3)N2CCN(C)CC2)c1C (stereo not given) 0.236%, COc1ccc(OC)c(NC(=O)c2cccn2-c2nnc(N3CCCCC3)s2)c1 -1.23%, COc1ccc(CNC(=O)c2cc3c(=O)oc4ccc(C)cc4c3s2)c(OC)c1 -0.748%, COc1cc(NC(=O)CSc2ncc(S(=O)(=O)c3ccc(Br)cc3)c(=O)[nH]2)cc(OC)c1 -10.3%, Cc1c2cnn(CC(=O)NCCc3ccccc3)c(=O)c2c(C)n1Cc1ccccc1 -1.07%, Fc1ccc(-c2noc3ncnc(NC4CCCCC4)c23)cc1 -1.79%, CCCCOc1cccc(C(=O)N(Cc2sccc2C)C2CCS(=O)(=O)C2)c1 (stereo not given) -3.82%, CCN(CC)S(=O)(=O)c1ccc2oc(C(=O)N(C)Cc3ccccc3)c(C)c2c1 2.93%, COc1ccc(Cn2c(=O)c3oc4ccccc4c3n(Cc3ccc(F)cc3)c2=O)cc1 -0.781%, Cc1cccc(N2CCN(C(=O)CCCCn3c(=O)[nH]c4ccsc4c3=O)CC2)c1C 1.22%, Cc1cc(Nc2cccc(Cl)c2)nc2ccc(NC(=O)Cc3cccc(C(F)(F)F)c3)cc12 0.0791%, COc1ccc(CNC(=O)c2ccc(NC(=O)N3CCCCc4ccccc43)cc2)cc1 1.6%, O=C(NCCCc1ccccc1)C1CCN(C(=O)N2CCOc3ccc(Cl)cc32)CC1 -24.9%, Cn1ccc2c(OCC(=O)Nc3cc(C(F)(F)F)ccc3Cl)cccc2c1=O -4.91%, CCOc1ccccc1NC(=O)CCn1nc(C)c(S(=O)(=O)N2CCCCC2)c1C 0%, COc1ccc(C2C=C(c3ccccc3)Nc3nc(NC(=O)/C=C/c4ccccc4)nn32)cc1 (stereo not given) 1.72%, CCN(CC)S(=O)(=O)c1ccc2c(c1)c(=O)c(C(=O)N1CCN(c3ccc(F)cc3)CC1)cn2C -13.8%, CCc1ccc(NC(=O)CSC2=Nc3ccccc3C3=NC(CC(=O)NCc4ccccc4)C(=O)N23)cc1 (stereo not given) 0.595%, O=C(Cn1ncc2c3ccccc3n(Cc3cccc(Cl)c3)c2c1=O)NC1CCCCCC1 -1.48%, CC(=O)N1CCc2cc(S(=O)(=O)CCC(=O)NCc3ccc(Cl)cc3)ccc21 -0.55%, COC(=O)CCN(c1ccccc1)S(=O)(=O)c1cc(-c2cc(C)no2)ccc1OC 4.81%, CCN1CCSc2ccc(C(=O)NCc3ccc(OC)cc3)cc21 1.49%, CCc1ccc(-c2nc(CS(=O)CC(=O)NCCc3ccc(Cl)cc3)c(C)o2)cc1 (stereo not given) -7.11%, O=C1CCSC2(C(=O)N(Cc3ccc(F)cc3)c3ccccc32)N1c1ccc(F)c(F)c1 (stereo not given) -25.7%, CCNC(=O)CC1C(=O)N(c2cccc(OC)c2)C(=O)N1Cc1ccc(OC)c(OC)c1 (stereo not given) -3.29%, CCOc1ccc2oc(=O)cc(CN3CCN(C(=O)c4ccc(F)cc4)CC3)c2c1 3.78%, CS(=O)(=O)N1CCC(N2CCN(Cc3ccccc3)C(=O)C2=O)CC1 8.32%, COc1cccc(NC(=O)Cn2c(=O)n(-c3ccc(C)cc3)c(=O)c3ccc(C(=O)NCc4ccco4)cc32)c1 -6.43%, Cc1c(C(=O)Nc2cccc(Cl)c2)oc2ccc(S(=O)(=O)N(C)C3CCCCC3)cc12 7.35%, CCOc1ccccc1N(CC(=O)N1CCc2ccccc2C1)S(=O)(=O)c1ccccc1 23.2%, Cc1nc2ncnn2c(C)c1CCC(=O)NCc1ccccc1Cl 2.8%, COc1cc(C)c(C)cc1S(=O)(=O)Nc1cccc(-c2ccc(N3CCOCC3)nn2)c1 -2.59%, CCc1cccc(NC(=O)C(c2ccccc2)N2Cc3ccccc3C2=O)c1 (stereo not given) 0.781%, COCCn1c(=N)c(C(=O)NC(C)c2ccccc2)cc2c(=O)n3cc(C)ccc3nc21 (stereo not given) -16.9%, COc1ccc(CCNC(=O)C(=O)NCC(c2ccco2)S(=O)(=O)c2ccc(F)cc2)cc1 (stereo not given) -15.7%, COC(=O)c1cc2oc3ccccc3c2n1Cc1nc(-c2ccccc2C)oc1C 0.177%, O=C(CSCc1cc(=O)c2cc(F)ccc2[nH]1)Nc1ccccc1Cl 3.28%, Cc1cccc(N2CCN(S(=O)(=O)c3cc(C(=O)Nc4ccccc4Cl)ccc3F)CC2)c1C 10.6%, CCc1ccccc1NC(=O)CSc1nnc2ccc3ccccc3n12 -1.02%, CCC(C)NC(=O)CCc1c(C)nc2nc(-c3cc(OC)cc(OC)c3)nn2c1C (stereo not given) 7.09%, Cc1ccc(NC(=O)[C@@H](c2ccccc2)N2Cc3ccccc3C2=O)cc1 -2.06%
